For one molecule, EC50 results are on record in patent CN110156894A (JIANGSU NUOMAIBO BIOMEDICAL TECH CO LTD, dated 2019).

For the experiment, the target named is T1, 重组TEM8蛋白(义翘神州) (human, UniProt Q9H6X2 33-321, limits assumed).
T1 construct: also called TEM8重组蛋白; recombinant TEM8 protein (Sino Biological)
T1 sequence (looked up): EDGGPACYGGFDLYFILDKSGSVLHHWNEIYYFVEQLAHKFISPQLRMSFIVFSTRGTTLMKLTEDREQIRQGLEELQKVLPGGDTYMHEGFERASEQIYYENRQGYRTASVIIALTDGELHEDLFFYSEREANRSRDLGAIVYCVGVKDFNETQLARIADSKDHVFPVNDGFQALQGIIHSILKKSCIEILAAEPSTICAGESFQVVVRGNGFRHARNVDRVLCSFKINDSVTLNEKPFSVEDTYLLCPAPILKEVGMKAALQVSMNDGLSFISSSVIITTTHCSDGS
Nature of the experiment: ELISA on plate-bound TEM8 protein, method as in Example 2.

B1: HUT104-ADC (other)
heavy: EVQLQESGPGLVKPSETLSLTCTVTGDSISSDYWNWVRQAPGQRLEWMGYISYSGNTYTNPSLKSRITINRDTSKNQFSLQLNSVTPEDTAVYYCARYKTITSAFDVWGQGTTVTVSS[omitted - human IgG1 constant region]
light: EIVMTQSPATLSVSPGERATLSCRASQNIRDFLHWYQQKPGQAPRLLIYYASQSISGIPARFSGSGSGTDFTLTISSLEPEDFAVYYCQNGHSFPYTFGGGTKVEIKRTVAAPSVFIFPPSDEQLKSGTASVVCLLNNFYPREAKVQWKVDNALQSGNSQESVTEQDSKDSTYSLSSTLTLSKADYEKHKVYACEVTHQGLSSPVTKSFNRGEC
modifications: vcMMAE (VC linker + MMAE) joined through maleimide to the interchain cysteine thiols exposed by reduction; positions and number not stated
notes: also called TEM8抗体药物偶联物; HUT104-vcMMAE
In general, EC50 refers to the concentration at which the effect is half-maximal. As for B1, the response was half-maximal at 2.73 ng/mL (EC50).
